These results are taken from publication PMC3240630.

Protein sequences, listed by entry. Tags and fused reporters are not part of them. Lines headed by an entry give the natural chain unless they say otherwise; changes in a name come on top. Chains listed by the source or under a name are the forms on record and can include a tag or linker. Residues count along the entry.
XIAP-UBA (UBA domain of X-linked inhibitor of apoptosis protein, residues 365-423) (P98170, residues 365-423): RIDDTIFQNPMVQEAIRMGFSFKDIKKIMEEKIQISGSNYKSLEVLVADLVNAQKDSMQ
XIAP-UBA Δ (369–372) (P98170, form named): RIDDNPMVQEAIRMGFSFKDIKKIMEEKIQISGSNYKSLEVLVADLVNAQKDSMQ
XIAP-UBA F371A (P98170, form named): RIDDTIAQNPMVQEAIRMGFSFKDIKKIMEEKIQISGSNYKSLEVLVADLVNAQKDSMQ
XIAP-UBA T369A (P98170, form named): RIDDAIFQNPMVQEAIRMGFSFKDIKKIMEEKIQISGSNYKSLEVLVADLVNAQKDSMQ

These are yes or no findings as the source states them, for the method shown. Some binding calls cover weakened binding; strength is not graded here.

The target in experiment [1] is XIAP-UBA Δ (369–372) (human) (UniProt P98170). As to the kind of experiment: cross-linking; XIAP-UBA wild type or mutant (1 mg/ml) with 500 µM BS3, 60 min, room temperature, 10 mM HEPES pH 7.5; SDS-PAGE, Coomassie; both purified.
The next experiment concerns the target XIAP-UBA F371A (human) (UniProt P98170). The experiment is described as above.
In a further experiment the target is XIAP-UBA T369A (human) (UniProt P98170). The experiment is described as above.
For experiment [2], the target named is XIAP-UBA (UBA domain of X-linked inhibitor of apoptosis protein, residues 365-423) (human) (UniProt P98170). The description is as above.
The target is the same in experiment [3]. Description: NMR titration; dilution series of 15N-XIAP-UBA, 0.16 mM to 1.9 mM; changes of 1H-15N HSQC cross peak positions; 298 K; BisTris buffer pH 6.7; both purified.
The target is the same in experiment [4]. Description: intermolecular NOEs (isotope-filtered, edited 3D NOESY-HSQC); mixed sample of 1 mM 13C/15N-XIAP-UBA and 1 mM unlabelled XIAP-UBA in BisTris buffer; both purified.

“XIAP-UBA Δ (369–372) (from UniProt P98170 365-423) (domain or fragment)”: in experiment [1], the binding result is on record as “no binding (tested: 1 mg/ml)”.

In the case of “XIAP-UBA F371A (from UniProt P98170 365-423) (domain or fragment)”, in the experiment with XIAP-UBA F371A (human), the binding entry is given as “binds weakly”.

In the case of “XIAP-UBA T369A (from UniProt P98170 365-423) (domain or fragment)”, in the experiment with XIAP-UBA T369A (human), the binding entry is reported as “binds weakly”.

Regarding “XIAP-UBA (UBA domain of X-linked inhibitor of apoptosis protein, residues 365-423) (from UniProt P98170 365-423) (domain or fragment)”, the binding result in experiment [2], in experiment [3] and in experiment [4] was “binds weakly” throughout.
